Test results taken from PubChem BioAssay (NCI).
Several values for one entry are separate records, joined by “and”; a condition that tells them apart may be missing. Equal values may be shown once.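 Compound exposure: 48 hours, 5 concentrations, 96-well plates. GI50 is the concentration that inhibits growth by half. The concentration for full growth arrest is given as TGI.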 Peptide text beside a SMILES is read from it.

Tested on: NCI-H322M lung
Assay: NCI tumour cell line growth inhibition, 48 h

Compound	TGI	GI50
O=[N+]([O-])c1ccc(C(c2c[nH]c3ccccc23)c2c[nH]c3ccccc23)cc1	31.9 µM	–
COc1cc(OC)c([C@@H]2OC(=O)C3C2C(=O)O[C@H]3c2cc(OC)c(OC)cc2OC)cc1OC (some centres not stated)	> 100 µM	–
CC1=C(C)C(=O)c2c(cc3ccc4ccccc4n23)C1=O	> 100 µM	–
CC(C)(NC(=O)OCc1ccccc1)C(=O)NC(Cc1ccccc1)C(=O)O (configuration not stated) (HELM PEPTIDE1{[O=C(OCc1ccccc1)[*:2]].[Aib].[O=C(O)C(Cc1ccccc1)N[*:1]]}$$$$V2.0)	> 100 µM	–
N=C1C(c2nc(-c3ccc(Br)cc3)cs2)=C(O)CN1Cc1cccnc1	> 100 µM	35.8 µM
COc1ccc(N=C2CSc3nnc(-c4cc(F)c(Cl)cc4Cl)n3N2)cc1	36.9 µM	4.92 µM
CCN1CC(C)Cn2c(=O)[nH]c3cc(Br)cc1c32 (configuration not stated)	> 100 µM	–
c1ccc2c(-c3cnc(-c4c[nH]c5ccccc45)cn3)c[nH]c2c1	> 100 µM	–
CSc1c(C(=O)Nc2ccccc2)c(N)nn1-c1ccccc1	> 100 µM	–
COc1ccc2nc(N/N=C(\C)c3ccccn3)cc(C)c2c1	1.55 µM	0.14 µM
CC(C)(CN)CN	> 100 µM	–
COc1ccc2c(c1)OC(c1cccnc1)C(c1ccccc1)C2=O (configuration not stated)	> 100 µM	–
NCCC(N)C(=O)O (configuration not stated)	> 100 µM	–
CC1=C(C(=O)Nc2c(C)cccc2C)C(c2ccc3c(c2)OCO3)C(C(=O)Nc2c(C)cccc2C)=C(C)N1	26.7 µM	–
Cn1ccnc1Sc1ccc(/C=N/NC(=O)c2ccccc2O)cc1[N+](=O)[O-]	> 100 µM	–
COc1ccc2c(c1)[nH]c(=O)c1c3cc(C)c(C)cc3cn21	2.1 µM	0.052 µM
CC(=O)n1c(COS(C)(=O)=O)nc2ccccc21	> 100 µM	–
COc1ccc(Cl)cc1Nc1nc(C(F)(F)F)ccc1C(=O)N/N=C/c1c(Cl)cccc1Cl	> 100 µM	2.91 µM
CC(=O)O/C=C(/C=C/OC(C)=O)C(C/C=C(\C)C#CC=C(C)C)OC(C)=O (configuration not stated)	> 100 µM	–
O=C(Nc1ccc(N2CCNCC2)cc1)c1[nH]ncc1Nc1ncnc2sc3c(c12)CCC3	1.44 µM	0.139 µM
O=C(CN1CCN(c2ncccn2)CC1)Nc1ccc(Cl)cc1C(=O)c1ccccc1Cl	> 100 µM	> 100 µM
CCC(C)[C@H](NC(=O)N[C@H](C)c1ccccc1)C(=O)OC (some centres not stated)	> 100 µM	–

Compound	TGI	GI50
CCOC(=O)/C(=C\NCC(O)c1ccccc1)c1nc2ccccc2[nH]1 (configuration not stated)	> 100 µM	–
COc1cc(OC)c2c(O)cc(CC(C)O)cc2c1 (configuration not stated)	> 100 µM	–
COc1cc(-c2nn(-c3ccc(NC(=O)c4ccc(Cl)c(Cl)c4)cc3)cc2-c2ccncc2)ccc1Cl	> 100 µM	> 100 µM
COc1cc(CCc2ccc(OCCN(C)C)cc2)cc(OC)c1OC	> 100 µM	–
Brc1ccc(N=NN2CCCCC2)cc1	> 100 µM	–
Cc1ccc([N+](=O)[O-])cc1S(=O)(=O)Nc1ccc(C2=NN(c3ccc([N+](=O)[O-])cc3[N+](=O)[O-])C(c3ccccc3)C2)cc1 (configuration not stated)	34.6 µM	–
CC1OC(OCC2OC(Oc3c(-c4ccc(O)cc4)oc4cc(O)cc(O)c4c3=O)C(OC3OCC(O)(CO)C3O)C(O)C2O)C(O)C(O)C1O (configuration not stated)	> 100 µM	–
Cc1cnoc1NC1=CC(=O)C(=O)c2ccccc21	> 100 µM	–
O=C(c1ccc(Cl)cc1)c1ccc(OCC(=O)N2CCN(c3ccccc3)CC2)cc1	> 100 µM	–
CC(=O)Oc1ccc(/C=C/C(=O)O[C@@H](C)[C@H](C)OC(=O)/C=C/c2ccc(OC(C)=O)c(OC(C)=O)c2)cc1OC(C)=O	61.2 µM	–
Cc1cn(C2CC(n3cc(Cn4cc(F)c(=O)[nH]c4=O)nn3)C(CO)O2)c(=O)[nH]c1=O (configuration not stated)	> 100 µM	–
Cc1cc(C)nc(NS(=O)(=O)c2ccc(Nc3c4ccccc4nc4c(C(=O)Nc5ccc(S(=O)(=O)N=C(N)N)cc5)ccc(Cl)c34)cc2)n1	55.3 µM	–
CC1=C(C(=O)Nc2ccccc2C)C(c2ccccc2)C(C(=O)Nc2ccccc2C)=C(C)N1	> 100 µM	–
Cc1ccc(N=Nc2c(C)nn(C(=O)CC(=O)Nc3ccccc3)c2C)cc1C	> 100 µM	–
CCCCOC(=O)C(=O)C(CCC(=O)c1ccc(C)cc1)C(=O)C=C(C)C (configuration not stated)	> 100 µM	–
CN1CC[C@@H](c2c(O)cc(O)c3c(=O)cc(-c4ccccc4Cl)oc23)[C@@H](O)C1	0.49 µM and 1.05 µM	0.123 µM and 0.0667 µM
CCOc1ccccc1NC(=O)C(=O)CC(=O)c1c(C)n([O-])c2ccccc2[n+]1=O	> 100 µM	–
O=c1oc2cc(OS(=O)(=O)c3ccc(F)cc3)ccc2c2c1CCCCC2	> 100 µM	> 100 µM
COc1cc2c(cc1C[N+](C)(C)CSc1ccccc1)-c1ccccc1CC2	26.2 µM	–
COc1cc2c(cc1OC)C(=O)/C(=C/c1cccc(OCC(=O)c3ccccc3)c1)C2	> 100 µM	43.6 µM
COc1cc(C2C=C(c3cccc(NC(C)=O)c3)Nc3ncnn32)cc(OC)c1OC (configuration not stated)	> 100 µM	2.17 µM
O=C(CSc1nc2ccccc2[nH]1)Nc1ccc(-c2nc3ccccc3s2)c(Cl)c1	> 100 µM	5.44 µM
